The list shows a part of the results. The full chains were built here from the parent and the listed change. Inactive controls read about 0.05.
B1: TEV protease; numbered along this chain (parent)
chain: MGESLFKGPRDYNPISSSICHLTNESDGHTTSLYGIGFGPFIITNKHLFRRNNGTLVVQSLHGVFKVKDTTTLQQHLVDGRDMIIIRMPKDFPPFPQKLKFREPQREERICLVTTNFQTKSMSSMVSDTSCTFPSGDGIFWKHWIQTKDGQCGSPLVSTRDGFIVGIHSASNFTNTNNYFTSVPKNFMELLTNQEAQQWVSGWRLNADSVLWGGHKVFMVKPEEPFQPVKEATQL

Variants of: B1
Test: raw area under fraction-flipped curve 0-4 h after induction (AUC4h, not background-subtracted), DNA-recorder readout of cleavage of the substrate (dimensionless); higher = more cleavage of the substrate by the protease variant
Conditions: temperature: 34 °C; time window: 0-4 h after rhamnose induction
Procedure: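 In vivo DNA recorder in E. coli TOP10(DE3) ΔrhaA at 34 °C. Each TEVp single-site mutant (parent TEVp 0) is paired with a single-site variant of the 7-mer TEVs (canonical ENLYFQ|S). The substrate sits between flexible linkers in a Bxb1-sfGFP-TEVs-SsrA fusion, so cleavage stabilises Bxb1 and speeds flipping of a recombination array, read by NGS. The value is the raw area under the fraction-flipped curve over 0-4 h after rhamnose induction (AUC4h), with ≥20 reads per time point. It is not background-subtracted; inactive controls average about 0.047.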
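Further: Bxb1 expression induced with 0.2% (w/v) L-rhamnose at OD600 near 0.5, cultures sampled hourly, flipped fraction per protease–substrate barcode pair counted by paired-end Illumina sequencing.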

| Variant | area with substrate ENLYFAS | area with substrate ENLYFCS | area with substrate ENLYFDS | area with substrate ENLYFES | area with substrate ENLYFFS | area with substrate ENLYFHS | area with substrate ENLYFIS | area with substrate ENLYFKS | area with substrate ENLYFLS | area with substrate ENLYFMS | area with substrate ENLYFNS | area with substrate ENLYFPS | area with substrate ENLYFRS | area with substrate ENLYFSS | area with substrate ENLYFTS | area with substrate ENLYFVS | area with substrate ENLYFWS | area with substrate ENLYFYS | area with substrate ENLYFGS |
| --- | --- | --- | --- | --- | --- | --- | --- | --- | --- | --- | --- | --- | --- | --- | --- | --- | --- | --- | --- |
| H168W | 0.0612 | 0.0588 | 0.0582 | 0.0629 | 0.0765 | 0.063 | 0.0521 | 0.0778 | 0.0634 | 0.0532 | 0.0562 | 0.0533 | 0.055 | 0.0531 | 0.0655 | 0.0585 | 0.054 | 0.065 | – |
| A196L | 0.0609 | 0.0611 | 0.071 | 0.0656 | 0.0774 | 0.0582 | 0.0521 | 0.0762 | 0.0563 | 0.0643 | 0.0715 | 0.059 | 0.0623 | 0.067 | 0.0544 | 0.0585 | 0.0533 | 0.0592 | 0.0572 |
| G162M | 0.0496 | 0.0572 | – | 0.0647 | 0.0421 | 0.0639 | 0.0477 | 0.0636 | 0.0471 | 0.0662 | 0.0662 | 0.0461 | – | 0.0531 | 0.0613 | – | 0.0735 | – | 0.055 |
| V183T | 0.06 | 0.0464 | 0.0638 | 0.0556 | 0.0728 | 0.0522 | 0.0559 | – | 0.0631 | 0.0596 | 0.0621 | 0.0608 | – | 0.0569 | 0.0722 | 0.0624 | 0.0628 | – | – |
| N177A | 0.054 | 0.0817 | 0.0678 | 0.067 | 0.0692 | 0.0655 | 0.0603 | – | 0.0616 | 0.0656 | 0.0552 | 0.06 | – | 0.0439 | 0.0759 | – | 0.0601 | 0.0655 | – |
| N177H | 0.0552 | 0.0614 | 0.0709 | 0.0552 | 0.0746 | 0.0475 | 0.0524 | 0.0618 | – | 0.0605 | – | 0.0625 | 0.0521 | 0.0687 | 0.0647 | 0.0696 | 0.0516 | – | – |
| S171E | 0.0384 | – | – | 0.0497 | 0.055 | – | 0.0577 | 0.0621 | 0.0576 | 0.0655 | – | – | – | 0.0577 | 0.06 | – | 0.033 | – | 0.0569 |
| L156W | 0.0564 | 0.0521 | 0.0547 | 0.0662 | 0.0692 | 0.0612 | 0.0627 | 0.0474 | 0.0569 | 0.0631 | 0.0564 | 0.0494 | 0.0637 | 0.0435 | 0.0681 | 0.0629 | – | 0.061 | 0.0643 |
| D137R | 0.06 | 0.0666 | – | – | 0.061 | – | 0.0684 | 0.0657 | 0.0909 | 0.0666 | 0.0827 | 0.065 | 0.0626 | – | 0.0622 | – | 0.0582 | – | 0.0707 |
| T181L | 0.0474 | – | 0.042 | 0.0506 | – | 0.0582 | 0.0553 | – | – | 0.0629 | – | 0.0459 | 0.0805 | 0.0397 | – | – | – | – | 0.0514 |
| S169T | 0.0667 | 0.0532 | 0.0611 | 0.0689 | 0.0702 | 0.066 | 0.0576 | 0.0592 | 0.0607 | 0.0757 | 0.0704 | 0.0566 | 0.0614 | 0.0586 | 0.0555 | – | 0.0505 | 0.0482 | 0.0478 |
| W141M | 0.0583 | 0.0572 | – | 0.0576 | 0.0765 | 0.0315 | 0.0553 | – | 0.0565 | 0.0548 | 0.0671 | 0.0395 | 0.04 | – | 0.05 | 0.0491 | – | – | 0.0415 |
| I145D | 0.0602 | 0.0432 | 0.062 | 0.0555 | 0.0604 | 0.0495 | – | 0.0399 | – | 0.0813 | – | 0.0602 | – | 0.0617 | 0.057 | 0.0337 | 0.0492 | – | – |
| F173A | 0.0649 | 0.0591 | 0.0689 | 0.0668 | 0.0547 | 0.0416 | 0.059 | 0.06 | 0.0536 | 0.0574 | 0.0836 | 0.0478 | – | – | 0.0532 | – | 0.053 | 0.0502 | – |
| F173D | 0.0578 | 0.0591 | 0.0572 | 0.0598 | 0.074 | 0.0636 | 0.0652 | 0.0601 | 0.0492 | 0.0682 | 0.0642 | 0.0667 | 0.0698 | 0.0787 | 0.0591 | 0.0581 | 0.0595 | 0.0579 | 0.0595 |
| C152S | 0.0504 | 0.0597 | – | 0.0626 | – | – | 0.0464 | – | – | 0.0536 | 0.0531 | 0.0562 | 0.061 | 0.0519 | 0.0613 | 0.0361 | – | – | 0.0598 |
| F140K | 0.0557 | 0.0762 | – | 0.0332 | 0.0539 | – | 0.0631 | 0.0585 | 0.0816 | 0.0551 | 0.0501 | 0.0717 | 0.0589 | – | 0.0859 | – | – | 0.0537 | – |
| I139G | 0.0692 | 0.0636 | – | – | 0.0771 | 0.066 | 0.0589 | 0.041 | 0.0592 | 0.0596 | – | 0.0498 | – | – | – | 0.0639 | – | – | 0.0374 |
| I139S | 0.065 | 0.0585 | 0.0543 | – | 0.0641 | – | 0.0554 | – | 0.0864 | – | – | 0.0518 | – | – | 0.0551 | 0.0642 | 0.0568 | 0.0665 | – |
| F180L | 0.0516 | 0.0565 | – | – | 0.0582 | 0.0562 | – | 0.0588 | – | 0.066 | – | – | 0.0497 | 0.0437 | – | – | 0.0491 | – | 0.0752 |
| F180C | 0.0565 | 0.0639 | – | 0.0557 | 0.0683 | – | 0.0578 | 0.0481 | 0.0478 | 0.0648 | – | 0.0485 | 0.0609 | 0.0605 | 0.0585 | – | 0.0641 | 0.0495 | – |
| F180V | 0.0483 | 0.0563 | 0.0468 | 0.0879 | 0.0589 | – | 0.0346 | 0.0579 | 0.0619 | 0.0448 | 0.0641 | 0.0523 | – | 0.0569 | 0.0731 | – | – | 0.0545 | – |
| T147N | 0.0633 | 0.0589 | 0.0575 | 0.0577 | 0.0927 | 0.0566 | 0.0616 | 0.0582 | 0.0869 | 0.059 | 0.0611 | 0.0635 | 0.0616 | 0.0618 | 0.0573 | 0.0559 | – | 0.0711 | 0.059 |
| T147E | 0.0555 | 0.0681 | 0.0576 | 0.0612 | 0.0639 | 0.0743 | 0.0583 | 0.0527 | 0.0673 | – | – | 0.0623 | 0.0624 | 0.0747 | 0.0591 | 0.0465 | 0.048 | – | – |
| D161F | 0.0583 | 0.058 | – | 0.0577 | 0.065 | – | 0.0515 | – | 0.0555 | 0.0495 | 0.0568 | 0.0606 | 0.0419 | – | 0.0459 | 0.0692 | 0.046 | 0.0493 | 0.0511 |
